The whole screen tested about 310,000 compounds, of which about 2,200 (0.71%) showed an effect of 50% or more. The effect is printed as a negative number. The list shows a part of the results.
Biological target: human ether-à-go-go-related gene (hERG) potassium channel (human, UniProt Q12809)
Experiment: primary screen, population patch clamp on CHO cells stably expressing hERG

Chain of human ether-à-go-go-related gene (hERG) potassium channel (Q12809 whole entry, looked up): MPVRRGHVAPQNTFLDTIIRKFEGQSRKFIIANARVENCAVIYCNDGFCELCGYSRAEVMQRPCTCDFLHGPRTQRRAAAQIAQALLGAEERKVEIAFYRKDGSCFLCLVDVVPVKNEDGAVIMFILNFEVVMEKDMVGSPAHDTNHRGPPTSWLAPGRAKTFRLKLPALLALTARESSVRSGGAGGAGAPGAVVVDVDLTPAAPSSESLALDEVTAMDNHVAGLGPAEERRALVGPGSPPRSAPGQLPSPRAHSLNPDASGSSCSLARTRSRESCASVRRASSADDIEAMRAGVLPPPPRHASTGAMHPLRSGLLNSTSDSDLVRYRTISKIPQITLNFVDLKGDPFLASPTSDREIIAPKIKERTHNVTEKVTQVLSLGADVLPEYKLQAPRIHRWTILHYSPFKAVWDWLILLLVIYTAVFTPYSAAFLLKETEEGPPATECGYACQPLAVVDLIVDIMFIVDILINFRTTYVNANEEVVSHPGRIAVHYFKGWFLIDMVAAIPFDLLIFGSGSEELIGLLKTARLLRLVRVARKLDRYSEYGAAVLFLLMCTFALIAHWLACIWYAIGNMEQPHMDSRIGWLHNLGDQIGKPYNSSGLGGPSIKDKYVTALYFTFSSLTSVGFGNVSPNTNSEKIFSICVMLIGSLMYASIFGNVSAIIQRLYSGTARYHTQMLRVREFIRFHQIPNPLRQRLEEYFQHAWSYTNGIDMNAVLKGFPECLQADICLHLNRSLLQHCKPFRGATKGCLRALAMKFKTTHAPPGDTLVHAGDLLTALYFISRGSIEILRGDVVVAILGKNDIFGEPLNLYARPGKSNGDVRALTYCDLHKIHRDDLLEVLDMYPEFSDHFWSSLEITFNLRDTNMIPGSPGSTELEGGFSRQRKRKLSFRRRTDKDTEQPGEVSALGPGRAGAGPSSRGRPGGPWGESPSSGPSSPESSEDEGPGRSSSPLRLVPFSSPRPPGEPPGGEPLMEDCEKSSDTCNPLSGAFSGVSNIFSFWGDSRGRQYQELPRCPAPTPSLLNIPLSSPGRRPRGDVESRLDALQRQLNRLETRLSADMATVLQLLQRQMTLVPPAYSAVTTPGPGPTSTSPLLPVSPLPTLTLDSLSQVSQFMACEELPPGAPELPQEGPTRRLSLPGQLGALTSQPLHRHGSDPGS

Compound	hERG current change (%, negative = inhibition) at 1uM [%]
CN(C)c1ccc(N=Nc2ccc(C(=O)O)cc2)cc1	6.87
Cc1noc(C)c1C(=O)OCC(=O)c1c[nH]c2ccccc12	8.85
CC1CCN(C(=O)CNC(=O)CNC(=O)Cc2ccccc2)CC1	12.2
COc1cc(NC(=O)NCC2CCN(Cc3ccc(C)cc3)CC2)cc(OC)c1OC	11.7
Cn1cnc2c(N/N=C/c3cccs3)ncnc21	16
CC1CCN(C(=O)CCc2ccc(Oc3cc([N+](=O)[O-])cc([N+](=O)[O-])c3)cc2)CC1	2.92
COc1ccc(/C=C2\OC(=S)N(C)C2=O)cc1	17
CCCN1CNC(=S)N(c2ccccc2OC)C1	0.455
CS(=O)(=O)N(CC(=O)O)c1ccc(Oc2ccccc2)cc1	9.23
Cc1ccc(CNC(=O)CSc2nc(N3CCCCC3)nc(N3CCCCC3)n2)cc1	17
COc1ccccc1S(=O)(=O)Cc1ccc(C(=O)N2CCCC2)o1	15.9
Cc1cc(C(=O)Nc2c(C)nn(Cc3ccc(F)cc3)c2C)on1	6.17
COC(=O)c1c(NC(=O)c2cccc(N3C(=O)CCC3=O)c2)sc2c1CCN(C(C)=O)C2	6.55
Cc1cccc(NC(=S)N=Nc2c(O)[nH]c3ccccc23)c1	7.3
CCCCOCCCn1c(N)c(C(=O)OCCOC)c2nc3ccccc3nc21	-0.912
Cc1ccc(S(=O)(=O)N(CC(=O)N2CCc3ccccc3C2)c2cccc(Cl)c2)cc1	3.36
NC(=O)C1Cc2ccccc2CN1C(=O)c1nn(Cc2ccccc2)c(=O)c2ccccc12 (centres unmarked)	-5.84
NS(=O)(=O)c1ccc(NC(=O)COC(=O)c2cnccn2)cc1	8.19
C#CC(CC)(CC)NC(=O)c1nn(-c2ccccc2Cl)c(C)cc1=O	16.2
CC(C)CCNC(=O)C(c1ccco1)N(C(=O)Cn1nnc2ccccc21)c1ccc2c(c1)OCO2 (centres unmarked)	-1.26
C#CCOCCOCCOCCNc1nc(N2CCN(C(=O)CCCCCCCCCCNC(=O)[C@H]([C@@H](C)CC)n3cc(CCCCN=C(N)N)nn3)CC2)nc(N2CCN(C(=O)CCCCCCCCCCNC(=O)[C@@H]([C@H](C)O)n3cc(C)nn3)CC2)n1	14.8
CCN(CC)CC(=O)N1c2ccccc2CCc2ccc(NC(=O)c3cc(OC)c(OC)c(OC)c3)cc21	7.61
COc1cc2c(C(=O)N3CCN(C)CC3)c(C)oc2cc1Br	-16.2
COc1ccc2c(C)c(CC(=O)N3C[C@H]4C[C@@H](C3)c3cccc(=O)n3C4)c(=O)oc2c1C	10.5
COc1ccc(C(=O)NC(=S)NNC(=O)c2ccccc2O)cc1	15.1
COCCn1c(N)c(N(Cc2ccccc2)C(=O)C2CCCC2)c(=O)[nH]c1=O	11.6
COc1ccc(N/C(=C(/C(Cl)=C(Cl)Cl)[N+](=O)[O-])n2nnc3ccccc32)cc1OC	12.5

Compound	hERG current change (%, negative = inhibition) at 1uM [%]
CSc1ccccc1NC(=S)N/N=C/c1cccn1Cc1ccc(F)cc1	11.9
Cn1c(=O)c(C(=O)NCCO)c(O)c2ccccc21	7.69
O=C(O)C1C2C=CC(C2)C1C(=O)NCCc1ccncc1 (centres unmarked)	11.1
O=C(c1ccc(Cl)c(S(=O)(=O)N2CCCC2)c1)N1CCN(c2ccccc2)CC1	6.96
O=C(CN1CCN(C(=O)C2CCCO2)CC1)Nc1cc(Cl)ccc1Cl (centres unmarked)	-4.93
COc1ccc(C(=O)NC(=S)Nc2ccc(N3CCOCC3)cc2)cc1Cl	13.5
COc1ccc(CN2C(=O)c3cccnc3C2=O)cc1S(=O)(=O)N(C)c1cccc(C)c1	10.1
O=C(CCCOc1ccccc1)n1nnc2ccccc21	14.9
O=C(Cc1ccccc1F)NC1CCCN(Cc2ccc(Cl)cc2)C1 (centres unmarked)	8.12
CC(=O)NC(=S)Nc1ccc(NC(=O)COc2ccc(Cl)cc2Cl)cc1	12.8
O=C(N/N=C/c1cccc(O)c1)c1ccc2c(c1)OCCO2	10.3
CCOC(=O)CN(C(=O)CNC(=O)c1cccs1)C(C(=O)NC1CCCCC1)c1cccs1 (centres unmarked)	11.9
CC(C)C(C)NC(=O)COC(=O)c1cccc(C(=O)OCC(=O)NC(C)C(C)C)n1 (centres unmarked)	5.12
Cc1ccc(S(=O)(=O)NC(CC(C)C)C(=O)NCCCn2nc(C)cc2C)cc1 (centres unmarked)	8.59
COc1cc(C(=O)Nc2scc(-c3ccc(Br)cc3)c2C(=O)O)cc(OC)c1OC	19.5
COc1ccc(CNC(=O)CN(Cc2ccco2)C(=O)CNS(=O)(=O)c2ccccc2)cc1	5.2
O=c1[nH]c(/C=C/c2ccccn2)nc2ccccc12	13.3
O=C1c2ccccc2C(=O)N1CSc1nnc2c3ccccc3n(CCc3ccccc3)c2n1	11.3
CCn1c(CCNC(=O)c2ccc(OC)cc2)nnc1SCc1ccc(Cl)c(Cl)c1	-1.18
CC(C)(C)NCC(=O)N/N=C/c1ccc(OCc2ccccc2)cc1	4.72
O=C1/C(=C/c2cccnc2)SC(=S)N1c1ccc(O)cc1	12.7
COc1ccc(S(=O)(=O)N2CCCCC2)cc1NC(=O)Cn1c(=O)cnc2ccccc21	2.11
COc1ccc(Cl)cc1S(=O)(=O)N1CCN=C1C	7.72
COC(=O)C/C=N/N=C1/NC(=O)/C(=C/C(=O)O)S1	6.62
O=C(CSc1ncn(-c2ccccc2)n1)Nc1nc2ccccc2s1	1.55
Nc1nc(Nc2ccccc2)n[nH]1	10.7
